Measured values as given in the supplement of paper PMC10369915.
This is one part of the list. Cut-off read from the data, not from the text of the source: active = 3.2 or more and inactive = the rest. Most of these values are background signal.

Legend:
Assay in all cases: enrichment score (SH2-bound / input frequency) (ratio); bacterial display of known human phosphotyrosine sites (pTyr-Var adds point mutants) read by sequencing; higher = stronger binding; tyrosines were phosphorylated by kinases first
Conditions in all cases: peptide library: pTyr-Var
[1] = target: SHP2 C-SH2 domain E139D
[2] = target: SHP2 C-SH2 domain wild-type
[3] = target: SHP2 N-SH2 domain L43F
[4] = target: SHP2 N-SH2 domain T42A
[5] = target: SHP2 N-SH2 domain T52S
[6] = target: SHP2 N-SH2 domain wild-type

Measured: enrichment score
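Note: displayed peptides selected on beads carrying the immobilized SH2 domain, with library peptides lacking any tyrosine serving as negative controls.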

RFLRGYRQDAF [HLA-A_Y137_YF]
inactive: [1] 0.337 | [2] 0.141 | [3] 0.255 | [4] 0.202 | [5] 0.34 | [6] 0.382

RFLRGYQQDAF [HLA-A_Y137_R138Q_YF]
inactive: [1] 0.995 | [2] 0.9 | [3] 0.72 | [4] 0.758 | [5] 0.786 | [6] 0.586

RLLRGHDQSAY [HLA-C_Y137_Y137H]
inactive: [1] 1.03 | [2] 0.938 | [3] 1.22 | [4] 0.817 | [5] 1.08 | [6] 1.08

RLLRGYDQLAY [HLA-C_Y137_S140L]
inactive: [1] 1.48 | [2] 0.992 | [3] 1.37 | [4] 1.14 | [5] 0.998 | [6] 1.22

YDGKDYIALKE [HLA-A_Y147_N151K]
inactive: [1] 0.793 | [2] 0.761 | [3] 0.852 | [4] 0.634 | [5] 0.761 | [6] 0.871

TLQSMSGCDVG [HLA-B_Y123_Y123S]
inactive: [1] 0.739 | [2] 0.852 | [3] 0.704 | [4] 0.557 | [5] 0.708 | [6] 0.76

EQQRAYLEGTC [HLA-C_Y183_L180Q]
inactive: [1] 0.489 | [2] 0.608 | [3] 0.702 | [4] 0.528 | [5] 0.588 | [6] 0.651

TLQSMFGCDVG [HLA-B_Y123_Y123F]
inactive: [1] 1.41 | [2] 1.26 | [3] 0.788 | [4] 0.798 | [5] 0.833 | [6] 1.13

FISVGYVDGTQ [HLA-B_Y51_D54G]
inactive: [1] 1.24 | [2] 1.11 | [3] 1.14 | [4] 1.12 | [5] 1.17 | [6] 1.28

EQLRAYLEGEC [HLA-C_Y183_T187E]
inactive: [1] 0.863 | [2] 1.14 | [3] 0.828 | [4] 1.16 | [5] 0.873 | [6] 1.01

TWQSMYGCDVG [HLA-B_Y123_L119W]
inactive: [1] 1.03 | [2] 1.09 | [3] 0.671 | [4] 0.731 | [5] 0.771 | [6] 0.796

FDGKDYIALNE [HLA-A_Y147_YF]
inactive: [1] 0.837 | [2] 0.813 | [3] 0.851 | [4] 0.6 | [5] 0.844 | [6] 1.12

RLLRGYNQSAY [HLA-C_Y137_D138N]
inactive: [1] 1.34 | [2] 1.84 | [3] 1.47 | [4] 1.63 | [5] 1.35 | [6] 1.92

RKGGSYTQAAS [HLA-A_Y344]
inactive: [1] 0.911 | [2] 0.511 | [3] 0.397 | [4] 0.596 | [5] 0.533 | [6] 0.568

TLQTMYGCDVG [HLA-B_Y123_S121T]
inactive: [1] 0.851 | [2] 0.619 | [3] 0.748 | [4] 0.757 | [5] 0.564 | [6] 0.735

RFLRGYHQDAY [HLA-A_Y137_R138H]
inactive: [1] 0.577 | [2] 0.78 | [3] 0.728 | [4] 0.44 | [5] 0.651 | [6] 0.867

QERPEYWDQET [HLA-A_Y83_G80R]
inactive: [1] 0.562 | [2] 0.567 | [3] 0.464 | [4] 0.468 | [5] 0.931 | [6] 0.634

RGYRQDAYDGK [HLA-A_Y140]
inactive: [1] 0.266 | [2] 0.349 | [3] 0.455 | [4] 0.392 | [5] 0.397 | [6] 0.374

RFLRGYEQDAF [HLA-A_Y137_R138E_YF]
inactive: [1] 0.925 | [2] 0.885 | [3] 0.815 | [4] 0.883 | [5] 1.08 | [6] 0.872

EQRRAYLEGTC [HLA-C_Y183_L180R]
inactive: [1] 0.674 | [2] 0.742 | [3] 0.714 | [4] 0.834 | [5] 0.647 | [6] 0.888

TLQNMYGCDVG [HLA-B_Y123_S121N]
inactive: [1] 0.695 | [2] 0.836 | [3] 0.91 | [4] 0.566 | [5] 0.71 | [6] 0.642

QEGPEYWDLET [HLA-A_Y83_Q86L]
inactive: [1] 0.66 | [2] 0.92 | [3] 0.732 | [4] 0.697 | [5] 0.754 | [6] 1.07

RFLRGYQQDAY [HLA-A_Y137_R138Q]
inactive: [1] 0.67 | [2] 0.49 | [3] 0.522 | [4] 0.524 | [5] 0.406 | [6] 0.661

FISVGYVDDTQ [HLA-B_Y51]
inactive: [1] 1.27 | [2] 1.2 | [3] 1.35 | [4] 1.59 | [5] 1.37 | [6] 1.13

EGLRRYLENGK [HLA-A_Y195_W191G]
inactive: [1] 0.562 | [2] 0.439 | [3] 0.609 | [4] 0.418 | [5] 0.61 | [6] 0.523

QEGPEYWDRET [HLA-A_Y83_Q86R]
inactive: [1] 0.4 | [2] 0.505 | [3] 0.489 | [4] 0.498 | [5] 0.62 | [6] 0.505

QEGPEYWDRNT [HLA-B_Y83]
inactive: [1] 0.554 | [2] 0.63 | [3] 0.395 | [4] 0.484 | [5] 0.721 | [6] 0.566

EWLRRHLENGK [HLA-A_Y195_Y195H]
inactive: [1] 0.895 | [2] 0.824 | [3] 0.842 | [4] 0.83 | [5] 0.841 | [6] 0.856

QEGPEYWDQNT [HLA-A_Y83_E87N]
inactive: [1] 0.494 | [2] 0.769 | [3] 0.846 | [4] 0.558 | [5] 0.539 | [6] 0.58

RLLRGYDQFAF [HLA-B_Y137_H137Y_YF]
inactive: [1] 1.49 | [2] 1.34 | [3] 1.34 | [4] 1.27 | [5] 1.29 | [6] 1.31

RKGGSYSQAAS [HLA-A_Y344_T345S]
inactive: [1] 0.498 | [2] 0.64 | [3] 0.903 | [4] 0.45 | [5] 0.639 | [6] 0.744

RLLRGHDQYAY [HLA-B_Y137]
inactive: [1] 1.38 | [2] 1.34 | [3] 1.35 | [4] 1.06 | [5] 1.37 | [6] 1.34

TLQVMYGCDVG [HLA-B_Y123_S121V]
inactive: [1] 1.31 | [2] 1.17 | [3] 0.938 | [4] 1.1 | [5] 1.26 | [6] 1.21

RLLRGHDQFAF [HLA-B_Y137_YF]
inactive: [1] 1.18 | [2] 1.33 | [3] 1.32 | [4] 1.19 | [5] 1.39 | [6] 1.39

TLQWMYGCDVG [HLA-B_Y123_S121W]
inactive: [1] 0.625 | [2] 0.861 | [3] 0.925 | [4] 0.804 | [5] 0.626 | [6] 0.783

TIQSMYGCDVG [HLA-B_Y123_L119I]
inactive: [1] 0.958 | [2] 0.814 | [3] 0.727 | [4] 0.729 | [5] 0.651 | [6] 0.702

RLLRGHDQSAF [HLA-C_Y137_Y137H_YF]
inactive: [1] 1.1 | [2] 1.05 | [3] 1.1 | [4] 0.788 | [5] 1.09 | [6] 1.22
